Test results published in US11104968B2, “Site-specific conjugation of linker drugs to antibodies and resulting ADCS” (Byondis B.V., priority 2014, dated 2021).

B1: H8-HC41: engineered cysteine anti-5T4 (VH P41C) H8 antibody conjugated to vc-seco-DUBA (conjugate)
heavy: QVQLVQSGAEVKKPGASVKVSCKASGYSFTGYYMHWVKQSCGQGLEWIGRINPNNGVTLYNQKFKDRVTMTRDTSISTAYMELSRLRSDDTAVYYCARSTMITNYVMDYWGQGTLVTVSS[human IgG1 constant region not shown]
light: DIVMTQSPDSLAVSLGERATINCKASQSVSNDVAWYQQKPGQSPKLLISYTSSRYAGVPDRFSGSGSGTDFTLTISSLQAEDVAVYFCQQDYNSPPTFGGGTKLEIKRTVAAPSVFIFPPSDEQLKSGTASVVCLLNNFYPREAKVQWKVDNALQSGNSQESVTEQDSKDSTYSLSSTLTLSKADYEKHKVYACEVTHQGLSSPVTKSFNRGEC
B2: H8-HC40: anti-5T4 H8 antibody HC S40C conjugated to vc-seco-DUBA (conjugate)
heavy: QVQLVQSGAEVKKPGASVKVSCKASGYSFTGYYMHWVKQCPGQGLEWIGRINPNNGVTLYNQKFKDRVTMTRDTSISTAYMELSRLRSDDTAVYYCARSTMITNYVMDYWGQGTLVTVSS[human IgG1 constant region not shown]
light: DIVMTQSPDSLAVSLGERATINCKASQSVSNDVAWYQQKPGQSPKLLISYTSSRYAGVPDRFSGSGSGTDFTLTISSLQAEDVAVYFCQQDYNSPPTFGGGTKLEIKRTVAAPSVFIFPPSDEQLKSGTASVVCLLNNFYPREAKVQWKVDNALQSGNSQESVTEQDSKDSTYSLSSTLTLSKADYEKHKVYACEVTHQGLSSPVTKSFNRGEC
B3: ADC-HC41 (SYD1091): engineered cysteine anti-PSMA (VH S41C) antibody conjugated to vc-seco-DUBA (conjugate)
heavy: EVQLVQSGAEVKKPGASVKISCKTSGYTFTEYTIHWVKQACGKGLEWIGNINPNNGGTTYNQKFEDRATLTVDKSTSTAYMELSSLRSEDTAVYYCAAGWNFDYWGQGTTVTVSS[human IgG1 constant region not shown]
light: DIVMTQSPSSLSASVGDRVTITCKASQDVGTAVDWYQQKPGKAPKLLIYWASTRHTGVPDRFTGSGSGTDFTLTISSLQPEDFADYFCQQYNSYPLTFGGGTKLEIKRTVAAPSVFIFPPSDEQLKSGTASVVCLLNNFYPREAKVQWKVDNALQSGNSQESVTEQDSKDSTYSLSSTLTLSKADYEKHKVYACEVTHQGLSSPVTKSFNRGEC

How the values were obtained:
[1] = Analytical HIC, relative hydrophobicity of ADCs; format: physicochemical; conditions: vc-seco-DUBA ADCs; (RTDAR2-RTDAR0)/(RTDAR2,wt-ADC-RTDAR0,wt-ADC); double mutants are DAR4 species (RT wt DAR4 = 12.2)
[2] = High molecular weight species (aggregates) of ADCs; format: physicochemical; conditions: vc-seco-DUBA ADCs, amount of aggregates formed
LNCaP-C4.2 = assay: Enzymatic cleavage by cathepsin B, cytotoxicity of released drug on LNCaP-C4.2 as 5T4-negative line; format: cell-based, human; conditions: 4 hours pre-incubation with cathepsin B, LNCaP-C4.2 used as the 5T4-negative cell line
[3] = system: PA-1 ovarian cancer xenograft; assay: PA-1 ovarian cancer xenograft model; format: in vivo, female Balb/c nude mice; conditions: single i.v. injection 3 mg/kg, FIG. 4A
[4] = system: 5T4-negative SK-MEL-30 cells; assay: Enzymatic cleavage by cathepsin B, cytotoxicity of released drug on SK-MEL-30; format: cell-based; conditions: 4 hours pre-incubation with cathepsin B
[5] = system: PSMA-positive cell line LNCaP-C4.2; assay: In vitro cytotoxicity, PSMA-positive cell line; format: cell-based, human; conditions: anti-PSMA-vc-seco-DUBA ADCs, at the highest concentration tested (~100 nM)
[6] = system: PSMA-negative DU-145 cells; assay: Enzymatic cleavage by cathepsin B, cytotoxicity of released drug on DU-145; format: cell-based; conditions: 4 hours pre-incubation with cathepsin B
[7] = system: LNCaP C4-2 prostate cancer xenograft; assay: LNCaP C4-2 prostate cancer xenograft model; format: in vivo, male CB17-SCID mice
[8] = 6 days, CellTiter-Glo, read-out: IC50 (nM), free drug cleaved by cathepsin B

Row | Molecule | Relative hydrophobicity [1] | HMW (%) [2] [%] | % efficacy, free drug cleaved by cathepsin B (LNCaP-C4.2) [%] | IC50 (LNCaP-C4.2; read-out: IC50 (nM), free drug cleaved by cathepsin B) [nM] | In vivo efficacy (tumour volume) [3] | % efficacy, free drug cleaved by cathepsin B [4] [%] | IC50 [4, 8] [nM] | % efficacy [5] [%] | % efficacy, free drug cleaved by cathepsin B [6] [%] | IC50 [6, 8] [nM] | In vivo efficacy (tumour volume) ([7]; single i.v. injection 2 mg/kg, FIG. 2A) | In vivo efficacy (tumour volume) ([7]; single i.v. injection 10 mg/kg, FIG. 2B) | Effect on body weight (restoration after cachexia) ([7]; single i.v. injection 10 mg/kg, FIG. 3)
1 | B1 | 0.3 | 0.4 | 98 | 1.27 | clearly more active |  |  |  |  |  |  |  | 
2 | B2 | 0.7 | 1.2 |  |  |  | 93 | 0.98 |  |  |  |  |  | 
3 | B3 | 0.6 | 1.4 |  |  |  |  |  | 78 | 59 | ~5 | significantly better than the comparator SYD1035 and is better than the native, non-engineered SYD998 | difference between the comparator SYD1035 and SYD1091 is even more pronounced | much faster restoration of the body weights
